Results from paper PMC4336329 (PLoS ONE, 2015).
Screen size: about 310,000 compounds; about 2,200 (0.71%) showed an effect of 50% or more. The effect is printed as a negative number. This is one part of the list.

These compounds were tested against human ether-à-go-go-related gene (hERG) potassium channel (human, UniProt Q12809) (assay: primary screen, population patch clamp on CHO cells stably expressing hERG).
Chain of human ether-à-go-go-related gene (hERG) potassium channel (Q12809 whole entry, looked up): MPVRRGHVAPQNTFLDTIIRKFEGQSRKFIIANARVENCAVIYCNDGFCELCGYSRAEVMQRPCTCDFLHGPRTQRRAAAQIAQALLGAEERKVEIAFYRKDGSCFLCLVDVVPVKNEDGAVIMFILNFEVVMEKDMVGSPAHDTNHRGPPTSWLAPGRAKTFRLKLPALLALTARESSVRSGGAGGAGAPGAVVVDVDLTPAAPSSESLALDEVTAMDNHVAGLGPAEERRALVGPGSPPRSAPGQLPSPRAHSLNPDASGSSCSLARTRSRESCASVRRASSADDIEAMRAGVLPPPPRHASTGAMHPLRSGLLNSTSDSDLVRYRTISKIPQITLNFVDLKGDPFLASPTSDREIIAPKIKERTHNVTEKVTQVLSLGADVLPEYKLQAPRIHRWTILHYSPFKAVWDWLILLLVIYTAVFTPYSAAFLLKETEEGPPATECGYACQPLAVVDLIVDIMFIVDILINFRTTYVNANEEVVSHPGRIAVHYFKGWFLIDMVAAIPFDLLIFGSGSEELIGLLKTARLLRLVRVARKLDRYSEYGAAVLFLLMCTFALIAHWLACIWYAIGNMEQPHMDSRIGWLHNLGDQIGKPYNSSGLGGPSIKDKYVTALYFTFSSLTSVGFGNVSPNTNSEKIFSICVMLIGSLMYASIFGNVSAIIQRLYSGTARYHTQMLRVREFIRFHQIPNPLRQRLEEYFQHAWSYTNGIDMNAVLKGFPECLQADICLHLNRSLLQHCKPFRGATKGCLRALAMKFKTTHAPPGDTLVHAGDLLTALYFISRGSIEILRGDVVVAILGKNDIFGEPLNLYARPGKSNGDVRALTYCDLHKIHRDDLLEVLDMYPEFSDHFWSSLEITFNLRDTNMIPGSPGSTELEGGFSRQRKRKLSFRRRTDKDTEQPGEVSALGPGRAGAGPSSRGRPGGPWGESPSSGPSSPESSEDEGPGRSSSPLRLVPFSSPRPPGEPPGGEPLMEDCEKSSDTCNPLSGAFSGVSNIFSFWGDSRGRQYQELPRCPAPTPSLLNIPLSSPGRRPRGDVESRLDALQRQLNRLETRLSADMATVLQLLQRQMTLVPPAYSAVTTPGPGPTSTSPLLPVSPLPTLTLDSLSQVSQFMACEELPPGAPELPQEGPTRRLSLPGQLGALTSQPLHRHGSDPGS

Structure (SMILES)	hERG current change (%, negative = inhibition) at 1uM
COc1ccc(CN(C)C(=O)c2ccc3c(=O)n4c(nc3c2)CCC4)c(OC)c1	14.3%
Nc1nc(SCc2ccccc2)ns1	13.5%
Cl.Nc1nc2nc(SCC(=O)N3CCCc4ccccc43)[nH]c2c(=O)[nH]1	12.3%
CCCS(=O)(=O)N1CCC(C(=O)NCCN(C)Cc2ccccc2)CC1	13.2%
COCC(=O)Oc1c(S(=O)(=O)c2ccccc2)c(C)nn1C(C)(C)C	12%
Cc1cc(C(=O)CN2C(=O)NC3(CCCCC3)C2=O)c(C)n1C	-2.9%
CC(C)(C)NC(=O)CSc1ncccc1-c1nc2ccccc2[nH]1	7.27%
COc1ccc(N=CC2=C(O)CC(C)(C)CC2=O)cc1	6.56%
Cc1nn(CC(=O)NCc2ccco2)c(C)c1[N+](=O)[O-]	17.2%
CCC(Sc1ccccn1)C(=O)Nc1cccc([N+](=O)[O-])c1 (stereo not drawn)	1.42%
Cc1ccc(C(=O)NCc2nnc(SCC(=O)Nc3sc4c(c3C#N)CCCC4)n2C)cc1	-2.94%
CCOc1ccccc1CN1CCNC(=O)C1CC(=O)NCCc1ccccn1 (stereo not drawn)	4.28%
Cc1ccc(C(C)C)c(OCC(=O)Nc2ccc3c(c2)nc(CCN2CCCCC2)n3C)c1	-41.9%
Nc1c(N(Cc2ccco2)C(=O)c2cccc(F)c2)c(=O)[nH]c(=O)n1Cc1ccccc1	13.7%
N#Cc1cccc(CN2CCC(=O)N([C@H](CO)Cc3ccccc3)CC2)c1	1.5%
O=C(NC1CCCC1)C(c1cccs1)N(Cc1ccco1)C(=O)Cn1nnc(-c2cccs2)n1 (stereo not drawn)	9.41%
COc1ccc(C(=O)N/N=C/c2sc(=O)n(Cc3cccc(C(=O)O)c3)c2Cl)cc1	12.2%
CC(=O)n1cc([C@H]2C=C(C(=O)N3CCN(Cc4ccccc4)CC3)O[C@@H](OCCCCO)C2)c2ccccc21	10.9%
CCCn1c(=S)[nH]c2ccccc2c1=O	6.7%
O=C1OC(/C(=C\Nc2ccc(F)cc2F)[N+](=O)[O-])c2ccccc21 (stereo not drawn)	20.3%
COCCCN1C(=O)C(O)=C(C(=O)c2ccco2)C1c1cccc(Br)c1 (stereo not drawn)	10.7%
COC(=O)[C@H](Cc1ccccc1)NC(=O)NCCc1ccccc1F	10.8%
CN1Cc2c(N3CCOCC3)nc(SCCC#N)c(C#N)c2CC1(C)C	5.21%
Cc1[nH]n2c(=O)c3c(nc2c1-c1ccc(Cl)cc1)CCC3	7.97%
COc1ccc(-c2nnc(SCC(=O)Nc3cc(S(=O)(=O)N4CCCCC4)ccc3Cl)n2N)cc1	9.06%
CSc1nc2[nH]ncc2c(=O)n1-c1ccccc1	9.08%
O=C(c1ccccc1)N1CCN(c2ccc([N+](=O)[O-])c(NCc3cccnc3)c2)CC1	8.37%

Structure (SMILES)	hERG current change (%, negative = inhibition) at 1uM
Cc1cc(C)c(C#N)c(SCc2[nH]nc3c2C(c2ccc(F)cc2)C(C#N)=C(N)O3)n1 (stereo not drawn)	3.97%
Cc1cccc(N2CC(C(=O)O)CC2=O)c1C (stereo not drawn)	11.6%
COc1ccc2oc(C(=O)OC(C)C(=O)N3CCC(C)CC3)c(C)c2c1 (stereo not drawn)	7.2%
Cl.NCCOc1ccccc1-c1ccccc1	-3.53%
CCOC(=O)/C(=N/Nc1ccccc1)Sc1nnc(CCc2ccccc2)n1-c1ccccc1	1.94%
Cc1cc(OCC(F)(F)C(F)(F)C(F)(F)C(F)(F)C(F)(F)C(F)F)nc(N)n1	14.7%
CCCNC(=O)NC(=O)CSc1ccc(C)cc1C	18.1%
COc1ccc(-n2c(=O)c3ccccc3n(CC(=O)NC3CCCC3)c2=O)cc1	12.8%
CNC(=S)N(CCc1cccc(C)c1)Cc1cc2cc(OC)c(OC)cc2[nH]c1=O	6.34%
O=C(O)CCc1nn2c3ccccc3n(CC(=O)O)c2nc1=O	9.42%
CCCn1c(/N=C/c2c[nH]c3ccccc23)nc2ccccc21	4.56%
COc1ccc(C=O)cc1Cn1c(=O)n(CCC(=O)NCc2ccco2)c(=O)c2sccc21	5.91%
CCCn1nnc(NC(=O)/C=C/c2ccc(C(C)C)cc2)n1	8.19%
O=C(Nc1ccc(Br)cc1)c1cc(S(=O)(=O)Nc2ccccn2)ccc1Cl	7.32%
O=C1C2CCCN2c2ccc(S(=O)(=O)N3CCOCC3)cc2N1Cc1cccc(C(F)(F)F)c1 (stereo not drawn)	14.9%
CC(C(=O)Nc1ccc2[nH]c(=O)[nH]c2c1)N1CCN(Cc2ccc3c(c2)OCO3)CC1 (stereo not drawn)	8.98%
CC(C)c1ccc(/C=N/n2c(COc3ccccc3)n[nH]c2=S)cc1	12%
C=CCN1C(=O)c2ccc(C(=O)N(C)CC(=O)Nc3c(C)cccc3C)cc2C1=O	18.1%
O=C1C(Cl)=C(N2CCOCC2)C(=O)N1c1cccc(C(F)(F)F)c1	10.9%
Cc1ccc(-c2nc3ccccc3s2)cc1NC(=O)c1ccc2c(c1)OCO2	12.7%
COc1ccccc1NC(=O)COC(=O)Cc1c[nH]c2ccccc12	0.794%
CCN(CC(=O)NCc1cccs1)C(=O)c1ccc(S(=O)(=O)Nc2ccccc2)cc1	6.41%
CCOC(=O)C(CC)/C(C)=N\NC(=O)c1cccc(C)c1 (stereo not drawn)	40.9%
CC(C)n1c(SCC(=O)Nc2ccc3c(c2)OCO3)nc2c1c(=O)n(C)c(=O)n2C	9.19%
Cc1ccccc1N(C(=O)c1snc(C(N)=O)c1N)C(C(=O)NCc1ccccc1)c1ccc(O)cc1 (stereo not drawn)	13.4%
CC1CC1C(=O)N1CCN(S(=O)(=O)c2cccc(F)c2)CC1 (stereo not drawn)	12.5%
Cc1ccc(C(=O)O)cc1Nc1ncnc2sc3c(c12)CCC3	13.6%
